# According to the supplement of paper PMC7826260:
# Some of the results follow. Each Rep nickase domain was tested in vitro on the same pool of single strands at 3 µM enzyme and 37 °C for 1 h; the strands have 90 letters, of which the middle is given. Numbers give uncut DNA relative to the enzyme-free pool, as log2; the lower, the more was cut; hits are not called. Reads are scaled to the total; where an enzyme cuts many sequences, the uncut ones exceed 0.
# Key:
# Test in all cases: uncleaved DNA left, log2 of reads against the no-enzyme library (log2 ratio); higher = less cleavage (more negative = more Rep cleavage of the k-mer); sequences stand for … in CTCGTCCG…ACCGGAGA
# [1] = tested on: T1, Rep nickase domain of Muscovy duck circovirus
# T1 sequence (residues 1-111 of Rep, tag left off): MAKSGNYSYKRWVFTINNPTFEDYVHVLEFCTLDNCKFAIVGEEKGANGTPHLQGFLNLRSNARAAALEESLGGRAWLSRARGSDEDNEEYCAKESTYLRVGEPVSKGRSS
# Experimental: (§1)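 A pool of 90-nt single-stranded DNAs with seven random bases just before the constant AC of the nick site (name = the seven bases) was cut by 3 µM recombinant His6-SUMO-tagged Rep nickase domain (300 nM DNA, 50 mM HEPES pH 8.0, 50 mM NaCl, 1 mM MnCl2, 1 h, 37 °C, three replicates). Uncut DNA was amplified and sequenced.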
# [2] = tested on: T2, Rep nickase domain of banana bunchy top virus
# T2 sequence (residues 1-94 of Rep, tag left off): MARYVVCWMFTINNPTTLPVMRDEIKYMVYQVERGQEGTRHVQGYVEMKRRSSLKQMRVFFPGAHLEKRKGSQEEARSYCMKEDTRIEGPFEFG
# Experimental: as §1
# [3] = tested on: T3, Rep nickase domain of cabbage leaf curl virus
# T3 sequence (residues 1-116 of Rep, tag left off): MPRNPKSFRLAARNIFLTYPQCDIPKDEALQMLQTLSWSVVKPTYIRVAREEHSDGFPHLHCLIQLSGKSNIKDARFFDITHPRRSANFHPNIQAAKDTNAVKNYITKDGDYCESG
# Experimental: as §1
# [4] = tested on: T4, Rep nickase domain of chickpea chlorotic dwarf virus
# T4 sequence (residues 1-124 of Rep, tag left off): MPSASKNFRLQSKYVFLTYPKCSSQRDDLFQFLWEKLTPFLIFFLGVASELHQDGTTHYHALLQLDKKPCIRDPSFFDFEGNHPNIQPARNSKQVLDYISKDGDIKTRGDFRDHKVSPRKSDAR
# Experimental: as §1
# [5] = tested on: T5, Rep nickase domain of faba bean necrotic yellows virus
# T5 sequence (residues 1-98 of Rep, tag left off): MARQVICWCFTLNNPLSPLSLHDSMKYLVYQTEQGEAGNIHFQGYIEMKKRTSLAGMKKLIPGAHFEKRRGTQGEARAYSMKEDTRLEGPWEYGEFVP
# Experimental: as §1
# [6] = tested on: T6, Rep nickase domain of maize striate mosaic virus
# T6 sequence (residues 1-117 of Rep, tag left off): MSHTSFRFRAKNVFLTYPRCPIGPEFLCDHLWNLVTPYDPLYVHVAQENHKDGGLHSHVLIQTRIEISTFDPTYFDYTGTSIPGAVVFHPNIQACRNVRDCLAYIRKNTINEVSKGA
# Experimental: as §1
# [7] = tested on: T7, Rep nickase domain of porcine circovirus 2
# T7 sequence (residues 2-116 of Rep, tag left off): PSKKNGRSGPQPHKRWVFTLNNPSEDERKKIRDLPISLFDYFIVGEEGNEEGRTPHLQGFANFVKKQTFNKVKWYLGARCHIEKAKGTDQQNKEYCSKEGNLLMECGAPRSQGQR
# Experimental: as §1
# [8] = tested on: T8, Rep nickase domain of tomato yellow leaf curl virus
# T8 sequence (residues 1-136 of Rep, tag left off): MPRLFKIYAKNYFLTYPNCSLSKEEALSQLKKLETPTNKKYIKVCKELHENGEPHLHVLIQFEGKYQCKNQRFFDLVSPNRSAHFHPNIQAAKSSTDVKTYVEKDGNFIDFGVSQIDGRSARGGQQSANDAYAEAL
# Experimental: as §1
# [9] = tested on: T9, Rep nickase domain of wheat dwarf virus
# T9 sequence (residues 1-137 of Rep, tag left off): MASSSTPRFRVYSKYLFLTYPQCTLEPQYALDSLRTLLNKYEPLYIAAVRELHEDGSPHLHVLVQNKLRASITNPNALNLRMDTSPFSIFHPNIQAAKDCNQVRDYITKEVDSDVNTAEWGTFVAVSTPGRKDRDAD
# Experimental: as §1
Sequence,uncleaved DNA left (log2) [1],uncleaved DNA left (log2) [2],uncleaved DNA left (log2) [3],uncleaved DNA left (log2) [4],uncleaved DNA left (log2) [5],uncleaved DNA left (log2) [6],uncleaved DNA left (log2) [7],uncleaved DNA left (log2) [8],uncleaved DNA left (log2) [9]
CCACTAT,0.103,0.0203,-0.017,-1.68,0.103,-0.62,-0.0918,-0.0709,0.0278
GTTTTGT,-0.0634,0.106,0.321,0.881,0.129,1.52,0.0212,0.103,0.0631
CTTTAGT,-2.57,-0.134,-0.0925,-0.814,0.0894,-0.964,-3.27,0.0578,-0.0808
CAATGAC,-0.0173,-0.0587,-0.47,-0.562,-0.109,-0.732,0.0318,-0.116,-0.106
CTCCTTT,-0.17,-0.014,-0.229,-2.15,-0.121,-0.612,-0.578,-0.11,0.00167
TACAATT,-0.402,-1.22,-3.63,-3.11,-0.199,-1.2,-3.77,-0.154,-0.757
TTCAAAG,0.106,0.0349,-0.625,-0.581,0.17,-1.18,0.304,0.146,0.146
ATTGACA,0.0299,0.0254,-0.0297,0.0675,-0.00422,0.315,0.0639,0.0112,-0.026
GACTAAC,-0.0501,-0.0279,-0.016,0.0643,0.0256,0.46,-0.142,-0.000877,0.0932
GGTTACT,-1.32,0.0149,0.481,0.53,0.00909,1.91,-2.34,0.0961,0.0524
CGCGGCA,0.0553,0.0311,-0.0991,-0.0322,0.0177,-0.261,-0.0965,0.121,-0.0216
CAGTTTT,-3.38,-3.48,-1.63,-3.15,-3.12,-0.539,-4.46,0.0594,-0.387
ACTAGAA,0.0702,-0.0199,-0.0541,0.114,0.0755,-0.723,0.0574,-0.0294,0.0992
CCTGTAA,0.257,0.168,0.0956,-0.451,0.144,-0.445,0.0632,0.185,0.212
ACCGCAA,-0.0309,-0.118,-0.338,-0.337,0.0529,-0.844,0.0636,-0.0915,-0.191
TTCTGCG,0.0567,0.0686,-0.271,1.06,0.0526,0.306,0.231,-0.198,-0.15
GAGTCTA,9.44e-05,-0.0491,0.261,-0.665,-0.118,1.24,-2.39,0.129,0.107
GAACGAA,0.114,0.174,0.444,0.513,0.057,0.797,0.281,0.188,0.168
TCTAATT,-0.0936,-0.00397,-0.102,-2.56,-0.00581,-0.459,-1.72,0.0427,-0.161
CCGTTAA,0.0562,0.0826,0.00946,-0.275,0.0442,-0.612,0.0475,-0.00533,0.0863
TCCGAAC,-0.205,-0.168,0.129,0.0301,-0.135,-0.221,-0.196,-0.15,-0.187
ATGAAGC,0.0258,0.0689,-0.246,-0.421,0.133,-1.09,0.144,0.157,-0.0658
GTTCTAA,0.118,0.135,0.355,0.996,0.148,1.92,0.212,0.199,0.195
GAGATCG,-0.0133,0.105,-0.567,-0.285,-0.068,-0.701,0.196,-0.00941,-0.0481
GGGCATA,0.0228,0.113,0.859,1.99,0.0129,2.24,0.0886,-0.0719,0.0365
AAATTTT,-4.08,-1.85,-4.9,-3.72,-0.162,-3.8,-4.72,-1.81,-4.66
TCCGACC,-0.0776,-0.0519,0.0891,-0.0903,-0.0149,-0.575,-0.103,-0.138,-0.13
TGTGTAG,0.00596,-0.0668,-0.734,-0.566,0.0239,-1.06,-9.03e-05,0.0479,-0.311
CCGGCCA,0.111,0.0633,0.119,-0.105,0.055,0.106,0.0675,0.128,0.0775
TCCAAAC,-0.0344,-0.0662,0.0888,-0.351,-0.0361,-0.609,-0.101,-0.0121,0.0735
